Data published in the supplement of paper PMC10126150.
Sequences with one replicate were seen in a single cluster, so their values are uncertain.

Tested on: ATP
Experiment: switch fluorescence ratio, 500 uM ATP over buffer (Cy3 cluster intensity, sum of 5 cycles each) (fold (ratio)); higher = stronger signal-on switching upon ATP binding; sequences stand for … in TCGTCGGCAGCGTCAGATGTGTATAAGAGACAGTTTTTTTTTTTTTTTTTTTTTTTTT…TC
Details: aptamer strand: ATP DNA aptamer (quencher-CACCTGGGGGAGTATTGCGGAGGAAGG + anchor), 100 nM annealed; ATP concentration: 500 uM; one replicate
How it was run: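 Five buffer/ATP imaging cycles were run on Cy3-labelled switching-strand clusters on a modified Illumina MiSeq flow-cell, with NaOH stripping and re-annealing between cycles. In each cycle, clusters annealed to 100 nM quencher-labelled ATP aptamer were imaged in selection buffer, then after 15 min with 500 uM ATP at 22 °C. Per cluster, the fluorescence ratio is summed target-cycle over summed buffer-cycle Cy3 intensity, averaged per switch-domain sequence. Only clusters within 100-1000 RFU were kept.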
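Further: ATP exposure 15 min at 22 °C before imaging.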

Row | Sequence | switch fluorescence ratio
1 | CTCCCCCAGT | 4.1
2 | TGGCTAATAG | 1.01
3 | ACTCACGATA | 1.5
4 | TCAAATCACG | 1.05
5 | AGATCGGATT | 1.01
6 | GACCAAGTAC | 1.78
7 | TTAGGTAATG | 0.997
8 | GATGGGAGA | 0.967
9 | TTGACGGGTT | 1.05
10 | CGAAGTCAGT | 1.09
11 | GAGGTGGTCA | 1.05
12 | TGTCTAAGG | 0.982
13 | GCGGCTCAGC | 1.02
14 | CCTGGGTGGA | 0.995
15 | GGCGTTTAGG | 0.988
16 | TTAAATCCTA | 0.995
17 | TACATTTCA | 0.997
18 | TGGAGTAGTG | 1.03
19 | CGATTTGATA | 0.999
20 | TGATGGGCGA | 0.964
21 | GTAAGGTGAA | 1.06
22 | GAACCGTAAT | 1.53
23 | CTGAAGGGAG | 1.02

Row | Sequence | switch fluorescence ratio
24 | ACGCGGGTGT | 1.05
25 | TCCGGCTAAG | 1.02
26 | GAAGAAGGGC | 0.978
27 | TGGGCATCCC | 1.01
28 | TAATGCCGTT | 0.992
29 | CATATTACAT | 0.999
30 | ATGGCGCCCC | 1.17
31 | GGCCCAAATC | 0.979
32 | ACACCCCCAA | 3.52
33 | TATTGGTTG | 1.03
34 | ATACATTGAC | 1.1
35 | CAGCGGCCTG | 0.979
36 | GCCGGGGGCA | 1.01
37 | AGACGCAACT | 1.69
38 | ACGCGGAGC | 1
39 | AGAACGGGCG | 0.979
40 | TTATGGGCGC | 1.03
41 | CTCGAATTGC | 1.51
42 | TGTCTATCGA | 1
43 | GCGGCAGCTG | 0.943
44 | ACCAGGGCTC | 1.08
45 | GATAGGGAAT | 1
46 | AGGAACGATT | 1.04

Row | Sequence | switch fluorescence ratio
47 | AAACATATGT | 0.993
48 | CCGCTAGGCA | 1.09
49 | ATTACCTCAA | 1.01
50 | CCTCGTTGCG | 0.884
51 | TATATAGCGG | 1.03
52 | ACCAGAACTT | 1.01
53 | TTTCACTCTT | 1.04
54 | TCGAAAGGGA | 0.99
55 | TACACTTACC | 1.3
56 | CCGTACGGGT | 0.954
57 | AAGTAGGCGT | 0.983
58 | ACCTGTTGGA | 0.977
59 | TCAAGTTAAT | 1.08
60 | GGTTGTTTAC | 0.973
61 | CCATTGTTAG | 1.01
62 | AGTCGTATGT | 1
63 | CAGGAGTCTG | 1
64 | GATCCACCTG | 1.04
65 | TTCCGGCCTC | 1.79
66 | GCGCAGGGCT | 1.17
67 | TCGCATGTT | 1.23
68 | CGAATTCGTC | 0.977
69 | CGTCTTAATT | 1.05

Row | Sequence | switch fluorescence ratio
70 | GACGTCATAA | 1
71 | ATAAGCCGTT | 0.967
72 | CCTATCTTTT | 1
73 | CAAGGACAAA | 1
74 | TCGCGTTTGG | 1
75 | TAGTCCAATT | 0.987
76 | GTGAGGCTGC | 0.936
77 | ACTGTTGTCA | 1.03
78 | ACCGTTTCAA | 1.03
79 | AGCTGGGGGC | 0.987
80 | AGCTCGTCAG | 1
81 | GGGTTACATG | 0.973
82 | CGGGCCTCTG | 1.06
83 | GTTTCCCCGG | 1.36
84 | CCGGTACTGA | 1.01
85 | TGTTGGAGC | 1.13
86 | CGATGGTACA | 1.02
87 | GGCCTGATGG | 1.02
88 | AACGATCGTA | 0.99
89 | ATTT | 0.973
90 | GAGATTGGCG | 1.02
91 | AACAAAAATG | 0.993
92 | CATATCCATT | 1.02

Row | Sequence | switch fluorescence ratio
93 | AGGTAGCCGA | 0.932
94 | GTGTAACGTA | 1.01
95 | TAAAACGTTT | 0.944
96 | CACCTGTTAG | 1.01
97 | TTTAGCGGGA | 0.993
98 | CACAAGTAAT | 1.05
99 | CCTAGGTCTC | 1.04
100 | TTCTTCTGTA | 1.02
101 | AGCCCCCAAT | 2.74
102 | GATATAAGCA | 1.01
103 | GGTCACGTCC | 0.969
104 | ATCAATGGTG | 1.07
105 | AGTCACAAGC | 1.05
106 | ATGCACTAGG | 1.09
107 | TAGCGTCCGG | 0.998
108 | TAGCTGGCAG | 1.01
109 | GCTCAGTGTT | 1
110 | TACGTACAAA | 1.42
111 | AATCTCCCGA | 1.02
112 | AAAAATCAGC | 0.994
113 | GGGAACCCGG | 1.01
114 | TGCAGTAGGA | 1.07
115 | CATAGATCAG | 0.964

Row | Sequence | switch fluorescence ratio
116 | TAAGGCTGCA | 0.978
117 | TTGGGCGTTG | 0.971
118 | GCATACCGAA | 1.03
119 | GCCGGTACGA | 1.01
120 | CTGGCATTCA | 1.01
121 | TAGCGAAAGA | 0.994
122 | GGTAACGTAC | 1.88
123 | CGGGCGTGAA | 1.03
124 | TGGTGTTGGC | 0.977
125 | ATCCGAGTGT | 1.04
126 | GGATTCAGCG | 0.958
127 | ACTTTATTAT | 1
128 | CCCTGTGCCC | 1.05
129 | TGACCAGTTG | 0.999
130 | TTTGACCGCC | 1.85
131 | AAAACTAAT | 0.986
132 | TGAAGTCCTC | 0.996
133 | GGGGAATAAT | 1.01
134 | CTAACAGGCT | 1.1
135 | TATTTGCCGA | 0.968
136 | GTGATCCTAG | 0.996
137 | GTAACACGGG | 0.993
138 | CACTTAATTT | 1.02

Row | Sequence | switch fluorescence ratio
139 | CGCGGAATCA | 1.04
140 | CCCCTGTGT | 2.15
141 | GGGAAGGTAA | 0.984
142 | TCAGTGTTGT | 1.01
143 | CTCGTCAGTC | 1.09
144 | ACACAAGCAG | 1.09
145 | CTAAGCATCG | 1.04
146 | TACATTACT | 1.35
147 | TTTGGAAGAG | 0.959
148 | TGGCGGATCG | 1.03
149 | TATCTTTTGG | 1.02
150 | CGTCCTGGAC | 0.971
151 | GGTGACGTGA | 1.03
152 | CGTCAGGTCA | 0.979
153 | ATTAGGGGA | 1.02
154 | CGACGATAAT | 1.76
155 | CGAGACTAAC | 1.1
156 | TATTCTGCGT | 0.984
157 | ATAGGCAAGT | 1.03
